Test results published in paper PMC4599898.
Results are given in words; binding and its absence hold for the method and conditions named. Binding seen in cells or lysates may run through a third protein.

Chains of the proteins cited; added tags and fusions are not shown.
UniProt C0Z2L5: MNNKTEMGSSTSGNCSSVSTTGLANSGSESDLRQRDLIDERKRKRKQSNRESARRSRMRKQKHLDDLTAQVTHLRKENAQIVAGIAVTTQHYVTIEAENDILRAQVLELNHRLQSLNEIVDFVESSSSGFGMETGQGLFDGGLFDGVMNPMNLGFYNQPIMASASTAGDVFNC

Experiments:
Test in all cases: split reporter; split YFP BiFC in transiently transformed Arabidopsis protoplasts, 2 ug of each plasmid, incubated overnight; read by flow cytometry (at least three biological replicates, minimum 30,000 cells); each pair tested in both fusion conformations (SPN and SPC); positive where the normalized BiFC score lies above the threshold 0.01 in both conformations
[1] = molecular target: T1, GBF1 (Arabidopsis thaliana) (UniProt P42774)
T1 sequence: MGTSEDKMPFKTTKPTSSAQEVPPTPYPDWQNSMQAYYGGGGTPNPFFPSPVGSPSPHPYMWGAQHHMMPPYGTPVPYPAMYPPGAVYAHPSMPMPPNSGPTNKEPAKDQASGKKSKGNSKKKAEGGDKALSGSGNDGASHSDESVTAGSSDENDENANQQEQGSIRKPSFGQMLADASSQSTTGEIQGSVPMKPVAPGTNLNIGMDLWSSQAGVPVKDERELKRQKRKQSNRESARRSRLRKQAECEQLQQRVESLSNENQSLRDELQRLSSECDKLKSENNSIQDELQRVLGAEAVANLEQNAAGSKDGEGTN

[2] = molecular target: T2, bZIP68 (Arabidopsis thaliana) (UniProt Q84LG2)
T2 sequence: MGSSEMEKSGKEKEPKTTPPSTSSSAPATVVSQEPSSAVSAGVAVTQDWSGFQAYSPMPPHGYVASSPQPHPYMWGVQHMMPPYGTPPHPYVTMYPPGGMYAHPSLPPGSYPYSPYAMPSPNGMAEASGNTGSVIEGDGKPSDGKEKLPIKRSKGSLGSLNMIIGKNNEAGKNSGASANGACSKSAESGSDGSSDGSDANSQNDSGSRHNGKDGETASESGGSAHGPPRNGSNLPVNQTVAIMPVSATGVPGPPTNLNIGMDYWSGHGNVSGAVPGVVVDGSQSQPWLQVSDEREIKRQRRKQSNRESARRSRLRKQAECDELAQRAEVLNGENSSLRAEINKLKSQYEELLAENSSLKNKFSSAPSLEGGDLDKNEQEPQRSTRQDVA

[3] = molecular target: T3, GBF2 (Arabidopsis thaliana) (UniProt P42775)
T3 sequence: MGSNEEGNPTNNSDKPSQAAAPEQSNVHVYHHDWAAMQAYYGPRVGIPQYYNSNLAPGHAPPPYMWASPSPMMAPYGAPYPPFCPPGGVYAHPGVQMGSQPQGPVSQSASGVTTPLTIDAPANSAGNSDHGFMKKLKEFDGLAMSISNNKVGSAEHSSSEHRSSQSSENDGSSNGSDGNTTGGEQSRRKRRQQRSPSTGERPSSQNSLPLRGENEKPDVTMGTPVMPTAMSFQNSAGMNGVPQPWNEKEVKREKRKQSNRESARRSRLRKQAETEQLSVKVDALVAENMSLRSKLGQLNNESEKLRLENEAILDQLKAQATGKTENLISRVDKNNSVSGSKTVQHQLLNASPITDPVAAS

[4] = molecular target: T4, bZIP16 (Arabidopsis thaliana) (UniProt Q501B2)
T4 sequence: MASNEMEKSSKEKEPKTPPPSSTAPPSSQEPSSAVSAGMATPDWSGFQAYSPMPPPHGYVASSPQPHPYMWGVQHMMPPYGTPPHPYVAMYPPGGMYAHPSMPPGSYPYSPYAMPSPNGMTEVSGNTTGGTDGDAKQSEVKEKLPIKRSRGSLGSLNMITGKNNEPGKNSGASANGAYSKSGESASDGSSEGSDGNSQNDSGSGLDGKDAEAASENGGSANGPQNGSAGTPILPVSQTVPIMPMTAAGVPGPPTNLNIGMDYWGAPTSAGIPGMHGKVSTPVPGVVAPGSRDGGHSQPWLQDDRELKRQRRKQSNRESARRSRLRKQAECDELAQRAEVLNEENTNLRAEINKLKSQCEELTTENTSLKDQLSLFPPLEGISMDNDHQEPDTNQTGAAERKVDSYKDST

[5] = molecular target: T5, GBF3 (Arabidopsis thaliana) (UniProt P42776)
T5 sequence: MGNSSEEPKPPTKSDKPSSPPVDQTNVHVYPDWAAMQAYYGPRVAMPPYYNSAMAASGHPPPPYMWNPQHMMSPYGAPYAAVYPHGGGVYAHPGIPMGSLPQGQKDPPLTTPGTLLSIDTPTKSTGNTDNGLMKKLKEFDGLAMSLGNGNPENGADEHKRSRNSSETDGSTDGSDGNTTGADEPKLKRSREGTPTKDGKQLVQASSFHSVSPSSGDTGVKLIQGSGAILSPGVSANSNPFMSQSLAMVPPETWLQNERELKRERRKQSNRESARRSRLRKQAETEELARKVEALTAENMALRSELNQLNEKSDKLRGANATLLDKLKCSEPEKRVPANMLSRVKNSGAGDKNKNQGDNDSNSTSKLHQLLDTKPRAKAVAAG

binding [1]: no binding
binding [2]: no binding
binding [3]: no binding
binding [4]: no binding
binding [5]: no binding
Substance: bZIP44 (from UniProt C0Z2L5 1-173)
